# Results taken from publication PMC4336329 (PLoS ONE, 2015).
# About 14,000 (4.5%) of roughly 310,000 compounds showed an effect of 50% or more. The effect is printed as a negative number. Some of the results follow.
# Target: human ether-à-go-go-related gene (hERG) potassium channel (human, UniProt Q12809)
# Test: primary screen, population patch clamp on CHO cells stably expressing hERG
# 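Also: peak tail current of the secondary pulse compared with the same well before compound.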
# Chain of human ether-à-go-go-related gene (hERG) potassium channel (Q12809 whole entry, looked up): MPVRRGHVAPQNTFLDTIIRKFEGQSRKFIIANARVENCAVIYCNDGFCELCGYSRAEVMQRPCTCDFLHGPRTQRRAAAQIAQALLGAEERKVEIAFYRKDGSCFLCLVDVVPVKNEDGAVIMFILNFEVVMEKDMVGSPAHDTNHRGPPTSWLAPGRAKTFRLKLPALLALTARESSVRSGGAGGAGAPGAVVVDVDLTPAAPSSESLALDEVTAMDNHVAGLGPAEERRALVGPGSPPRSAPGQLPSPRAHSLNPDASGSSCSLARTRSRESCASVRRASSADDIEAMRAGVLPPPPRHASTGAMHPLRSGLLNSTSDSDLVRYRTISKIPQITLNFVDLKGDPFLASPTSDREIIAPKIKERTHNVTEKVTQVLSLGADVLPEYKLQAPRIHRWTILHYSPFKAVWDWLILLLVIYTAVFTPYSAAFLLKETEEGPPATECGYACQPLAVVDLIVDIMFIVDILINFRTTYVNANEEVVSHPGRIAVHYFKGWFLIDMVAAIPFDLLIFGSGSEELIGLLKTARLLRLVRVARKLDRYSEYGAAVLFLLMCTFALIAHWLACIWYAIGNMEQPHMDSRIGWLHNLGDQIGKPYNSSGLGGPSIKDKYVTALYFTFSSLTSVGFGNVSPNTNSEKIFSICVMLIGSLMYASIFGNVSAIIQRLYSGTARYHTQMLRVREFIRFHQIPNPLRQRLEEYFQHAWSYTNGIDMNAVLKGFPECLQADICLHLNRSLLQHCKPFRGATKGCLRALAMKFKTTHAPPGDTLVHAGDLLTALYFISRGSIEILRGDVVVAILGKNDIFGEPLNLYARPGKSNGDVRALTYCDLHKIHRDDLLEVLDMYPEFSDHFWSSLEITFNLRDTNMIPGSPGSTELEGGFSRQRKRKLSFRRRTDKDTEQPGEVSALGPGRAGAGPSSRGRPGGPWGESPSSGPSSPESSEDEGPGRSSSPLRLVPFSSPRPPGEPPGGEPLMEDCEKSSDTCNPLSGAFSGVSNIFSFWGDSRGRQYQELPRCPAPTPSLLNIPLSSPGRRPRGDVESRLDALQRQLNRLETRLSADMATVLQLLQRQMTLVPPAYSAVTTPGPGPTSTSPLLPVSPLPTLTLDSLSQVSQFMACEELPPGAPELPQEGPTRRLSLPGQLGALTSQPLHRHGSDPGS
row,SMILES,"hERG current change (%, negative = inhibition) at 10uM [%]"
1,Cc1ccc(S(=O)(=O)NCCC(=O)N2CCN(S(=O)(=O)c3ccccc3)CC2)cc1C,-16.6
2,COc1ccc(/C=N/NS(=O)(=O)c2ccccc2)cc1OC(=O)c1ccc(C)cc1,10.7
3,O=C(O)c1nc(-c2ccccc2)n(-c2ccccc2)n1,4.87
4,CCCCOC(=O)Nc1cc(Cl)ccc1C,1.24
5,O=C(COC(=O)CNC(=O)c1ccc(Br)cc1)NCCC1=CCCCC1,24.7
6,O=C(N/N=C/c1ccc(OCC(=O)N2CCCCC2)cc1)c1ccccc1,19
7,COc1ccc(Cl)cc1N(C(=O)c1ccco1)C(C(=O)NC1CCCC1)c1cccnc1 (stereo not drawn),-6.43
8,Cc1nc(-c2nc(-c3c(C(=O)NN)noc3C)cs2)cs1,8.73
9,Nn1c(Cc2cccc3ccccc23)nnc1SCC(=O)NC1CCS(=O)(=O)C1 (stereo not drawn),14.5
10,O=C(OCc1cc(=O)n2c(n1)sc1ccccc12)c1ccc(O)cc1,19.6
11,O=C1c2ccsc2SCCN1Cc1c(F)cccc1Cl,-24.4
12,CN1CCN(CC(=O)Nc2nc3c(s2)CCCC3)CC1,8.05
13,COc1ccc(N(CC(=O)NCCC2=CCCCC2)S(=O)(=O)c2ccccc2F)cc1,-1
14,Cc1ccc(C(CNS(=O)(=O)c2ccc(Cl)cc2)N2CCN(C)CC2)cc1 (stereo not drawn),-72.8
15,CCc1ccc(NC(=O)c2cnn3c(C(F)F)cc(C)nc23)cc1,-6.56
16,COc1ccc(/C=C(\C#N)C(=O)OCC(=O)NCc2ccccc2Cl)cc1,6.86
17,CC(CNc1nc2ccccc2n2cnnc12)c1ccccc1 (stereo not drawn),-8.79
18,O=C(NCCOc1ccc(Cl)cc1)C1CC(=O)N(c2ccc(F)cc2)C1 (stereo not drawn),-69.4
19,Cc1cccc(Cl)c1OCCCn1ccnc1.O=C(O)C(=O)O,1.28
20,O=C(COC(=O)CNC(=O)c1sc2ccccc2c1Cl)Nc1c(Cl)cc(Cl)cc1Cl,15.6
21,CC[n+]1ccc(C)c2cc(SC(F)(F)F)ccc21.Cc1ccc(S(=O)(=O)[O-])cc1,-7.26
22,CC(C)(C)C1CCc2c(sc(NC(=O)c3cc(C4CC4)on3)c2C#N)C1 (stereo not drawn),10.1

row,SMILES,"hERG current change (%, negative = inhibition) at 10uM [%]"
1,CCOC(=O)C1=C(C)NC(=O)NC1C(C)C (stereo not drawn),-10.3
2,O=c1c2ccccc2nc(-c2ccccc2)n1-c1ccccc1,-13.1
3,COc1ccc(C)cc1NC(=O)CSc1nnc(-c2ccco2)n1Cc1ccco1,-12.8
4,CC(=O)c1ccc(N=c2scc(C)n2C(C)C)cc1,-4.69
5,O=[N+]([O-])c1ccc(Nc2ccccc2F)nc1,-2.22
6,CN(C(=O)CN1C(=O)S/C(=C\c2ccc(F)cc2)C1=O)C1CCS(=O)(=O)C1 (stereo not drawn),-34.6
7,Cc1ccc(S(=O)(=O)N2CCN(S(=O)(=O)c3ccccc3)C2c2ccc(N(C)C)cc2)cc1 (stereo not drawn),11.5
8,COC(=O)CSc1nnc(-c2ccoc2C)n1-c1ccc(C)cc1,-37
9,Cc1ccc(-c2nnc(CSc3nc4cc5c(cc4cc3C)OCO5)o2)cc1,-1.74
10,CCC(C(=O)NC(C)(C)C)N(Cc1ccc(F)cc1)C(=O)c1snc(C(N)=O)c1N (stereo not drawn),13.4
11,CCOC(=O)C1=NN(c2ccccc2)C(=O)C1,7.56
12,CCC(C)[C@@H](N)C(=O)N/N=C/c1cccc2nccnc12.Cl (stereo partly drawn),1.69
13,COc1ccc2c(CC(=O)OCC(=O)c3ccccc3OC)coc2c1,-5.39
14,Cc1cc(C)cc(N(C(=O)C(F)(F)F)C(C(=O)NC2CCCCC2)c2cccs2)c1 (stereo not drawn),-7.03
15,Cl.O=C(CN1CCOCC1)c1ccc(Br)cc1,18
16,Cc1ccc(-c2nn(C)c(=O)c3ccccc23)cc1CNC(=O)NC1CCCCC1,-8.53
17,CC1(C)CC(=O)N(CC(=O)NCc2ccc(F)cc2)c2ccccc2S1(=O)=O,-5.26
18,Cc1nnc(NCCO)c2ccccc12,15.3
19,COc1ccc(C2=NOC(Cn3c(Cc4ccc(Cl)cc4)nc4c3c(=O)n(C)c(=O)n4C)C2)cc1 (stereo not drawn),-22.1
20,COc1ccc2nc(SC(C)C(=O)NC3(C#N)CCCCC3)[nH]c2c1 (stereo not drawn),-20.1
21,COc1ccc(C(=O)NC(=S)Nc2ccc(N3CCCC3)cc2)cc1OC,12.1
22,CCOc1ccc(C(=O)Nc2ccc(CN3CCOCC3)cc2)cc1Br,-46.6

row,SMILES,"hERG current change (%, negative = inhibition) at 10uM [%]"
1,O=C(O)c1ccc(/C=N/NC(=S)NC2CCCCC2)cc1,16.8
2,CCCn1c(C)cc(C(=O)COC(=O)c2nccnc2N)c1C,6.39
3,CN(CCCC1CCCC1)C(=O)CC1C(=O)NCCN1Cc1cccc(F)c1F (stereo not drawn),7.01
4,ON1C(c2ccc(Cl)cc2Cl)N(O)[C@H]2CCCC[C@H]21 (stereo partly drawn),-1.85
5,O=S(=O)(c1ccccc1)c1nc(-c2ccco2)oc1NCCCN1CCOCC1,-6.01
6,C=C(C)CN(CC)C(=O)CSc1nc(O)cc(=O)n1C1CCCC1,29.4
7,Cc1ccc(S(=O)(=O)N(C)C)cc1NC(=O)COC(=O)c1sc2cc(Cl)ccc2c1Cl,-0.033
8,CC(=O)N/C(=C/c1ccc(OS(=O)(=O)c2ccc(C)cc2)cc1)C(=O)NCCO,-10.2
9,O=C(NNS(=O)(=O)c1ccc(F)cc1)c1cnn(-c2ccccc2)c1C(F)(F)F,-1.59
10,CCOC(=O)c1nnn(CC(=O)Nc2cccc(Cl)c2C)c1C(=O)OCC,4.51
11,O=c1[nH][nH]c(C(F)(F)F)c1C=NCc1cccc(Cl)c1,6.25
12,O=S(=O)(c1ccc(Br)cc1)n1ccc2ccccc21,0.941
13,O=C(COC(=O)c1ccc2c(c1)S(=O)(=O)N=C1CCCCCN12)NCc1cccs1,6.76
14,COc1ccc2nc(NC(=O)CCc3nc(C4=CCN(C)CC4)no3)sc2c1,-13.5
15,COCCNC(=O)/C(C#N)=C/c1ccc(O)c([N+](=O)[O-])c1,14.7
16,CC(=O)c1c(C)oc2ccc(N(C(C)=O)S(=O)(=O)c3cccc4cccnc34)cc12,-14.1
17,CN(C)c1nccc(Nc2ccccc2)c1C#N,-13
18,COc1ccc(S(=O)(=O)N2CCC(C(=O)O)(c3ccccc3)CC2)cc1,19.8
19,CCOc1ccc(NC(=O)CN(C)CC(=O)Nc2ccccc2C#N)cc1OCC,0.268
20,CCN(c1ccccc1)S(=O)(=O)c1ccc(NN)nc1,-12.2
21,CC(C)OC(=O)C1C(=O)NC2(C)CC1c1ccccc1O2 (stereo not drawn),18
22,COc1ccc(NC(=O)CN2C(=O)COc3ccc(S(=O)(=O)N4CCCCCC4)cc32)cc1,18.9

row,SMILES,"hERG current change (%, negative = inhibition) at 10uM [%]"
1,COc1ccc2c(C)cc(SCn3nnc4ccccc4c3=O)nc2c1,4.36
2,Cc1ccccc1NC(=O)Cn1nnc(-c2ccc(CN3CCC(C)CC3)cc2)n1,-5.75
3,N#Cc1ccccc1Cn1c(=O)n(CCCC(=O)NCc2ccc3c(c2)OCO3)c(=O)c2ccccc21,-7.13
4,CC(=O)Nc1ccc2nsnc2c1,16
5,CCCCCCCc1ccc(C2NC(=S)NC3=C2C(=O)c2ccccc23)cc1 (stereo not drawn),8.78
6,Cc1ccc(C)n1-c1ccc(-n2cnnn2)cc1,-5
7,Cl.O=C(CN1CCCC(O)C1)N1c2ccccc2Sc2ccc(C(F)(F)F)cc21 (stereo not drawn),-7.16
8,CCCOc1c(OC)cccc1C1CC(=O)Nc2cc(OC)c(OC)c(OC)c21 (stereo not drawn),-5.03
9,COc1ccc(NC(=O)CC2SC(=NCc3ccccc3OC)NC2=O)cc1 (stereo not drawn),8.42
10,O=c1[nH]c(N/N=C/c2ccccc2Br)nnc1-c1ccccc1,-3.18
11,Br.CCOC(=O)CCCc1sc(N)nc1-c1[nH]c(=O)[nH]c1C,16.8
12,CCCSc1nc(N2CCCC2)c2c(c1C#N)CC(C)(C)OC2,11.3
13,CCOC(=O)[C@@H]1[C@H]2COc3ccccc3[C@H]2N2C(=O)N(c3cccc(Cl)c3)C(=O)[C@@]12C,20.6
14,Cc1ccc(CS(=O)(=O)CCC(=O)NCc2ccccc2Cl)cc1,12.3
15,O=C1CSc2ccc(S(=O)(=O)CCC(=O)NC3CCCCC3)cc2N1,12.8
16,Cc1ccc2nc(SC(C)C(=O)NCc3ccco3)[nH]c2c1 (stereo not drawn),6.29
17,COc1ccccc1N(CC(=O)Nc1ccccc1C(=O)NCC(C)C)S(C)(=O)=O,-8.84
18,CCOc1ccccc1NC(=O)CSc1nnc(-c2cnccn2)n1C,-22.7
19,COc1ccc(NC(=O)CN2C(=O)C(C)Oc3ccccc32)c(OC)c1 (stereo not drawn),-10.4
20,Nn1c(Cc2cccc3ccccc23)nnc1SC1CCOC1=O (stereo not drawn),-0.158
21,O=C(O)CSc1ncnc2sc3c(c12)CCCC3,14.9
